Data as given in the supplement of paper PMC10126150.
Values marked as one replicate rest on one cluster of the flow cell; about a third of the high ones do not repeat.

Tested on: ATP
Assay: switch fluorescence ratio, 500 uM ATP over buffer (Cy3 cluster intensity, sum of 5 cycles each) (fold (ratio)); higher = stronger signal-on switching upon ATP binding; sequences stand for … in TCGTCGGCAGCGTCAGATGTGTATAAGAGACAGTTTTTTTTTTTTTTTTTTTTTTTTT…TC
Conditions: aptamer strand: ATP DNA aptamer (quencher-CACCTGGGGGAGTATTGCGGAGGAAGG + anchor), 100 nM annealed; ATP concentration: 500 uM; one replicate
Procedure, shortened: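 Per cluster, summed Cy3 intensity from the target cycles was divided by that from the buffer cycles to give the fluorescence ratio, then averaged per switch-domain sequence. Clusters outside 100-1000 RFU were excluded. The Cy3-labelled switching-strand clusters, on a modified Illumina MiSeq flow-cell, were annealed to 100 nM quencher-labelled ATP aptamer and imaged in selection buffer, then after 15 min with 500 uM ATP at 22 °C, for five cycles with NaOH stripping and re-annealing between them.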
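Further: ATP exposure 15 min at 22 °C before imaging.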

Sequence	switch fluorescence ratio
TTGCAGGAGT	1.15
CGCGGAACGT	0.969
GCAACGTGCC	1.02
TTATTAAGGC	1.05
GTCAATGTC	1.04
ATTACTCTTT	1.02
ATTTCAACTC	1.01
GCCACTCCCT	1.42
TCACAGCAGC	1.47
GCTTAATGGG	0.939
ATACCGAGAA	1.02
TATCACCTGC	1.01
ATAGGGAGCG	0.971
AGCCGGTACC	1.02
GTTTGTTCCG	1.02
AGACAATTCG	1.04
GCCCGCTTCT	0.958
TAAGGGTGAG	1.03
TTCGTATTTG	1
TATCGAGTAA	0.99
GATTAGGATG	0.993
ACATTCGCGG	1.08
CCGGGCTTTG	1.01
GGCGCCATTG	0.995
CGAGTTCAAA	0.934
TACTCGAGTG	0.98

Sequence	switch fluorescence ratio
AAGTGGGCTC	0.966
GACAGAGTTG	1.03
TCTAAATACC	1.11
GGGCGGATAG	0.989
CGTTTTGGAG	0.964
AGCATGGGCT	1
TATGTGATTA	1.03
CGGCCAAATG	1.04
CCATGGTCCC	1.02
AGGTGCGCGT	1.02
ACTCGATAAG	1.03
TGTTTGCCAC	0.984
ATACTCAATA	1.1
ATTTCAGGTT	0.976
GGCACAAGTG	1.02
GACTAAGACG	0.966
GAAATATGGG	0.96
CAGGTTCATC	1.01
GTCTAAGTTT	0.977
GGATTAACTG	1.08
GGGGCTTTAC	1.92
TATGGGCCCC	1.06
TAGTGGA	1.03
GTCAGCGTCG	0.991
CTCTCCTTAA	1.04
GGAATTGTAG	1

Sequence	switch fluorescence ratio
ATAGTGTATG	0.98
TCCGGGCAAG	2.87
AAGATCCCGG	1
CACAAAGTAA	1.04
AGCCTACTTA	1.02
AGTCCTCGCG	1.07
CGGAGTCAGT	1.59
AGGCCGATC	0.966
TCGACAGCTA	1.01
CTAAAAGGAT	1
AGCGAGGAAT	0.987
AAACGGAAGC	1.05
CAGCTGCTTA	0.957
GCATCAGCTC	1.02
ACGGTGCTTA	1.02
GAGACACCGA	0.998
TCTAACTGTG	1.01
CCTAAGTGGA	0.965
ACAACGGGG	1.02
TTTGTGGCGC	0.937
GTTGGTATCC	1.04
TTATGTGGCG	1.05
TCGGATATAC	4.53
CTACGCGCTT	1.26
ACCCCGATTG	1.16
TCCTGTTCTT	0.942

Sequence	switch fluorescence ratio
TAAGTGACTG	1.06
ACCGGGTATG	1.05
AGCTCATTC	1.02
CGGTTCAACG	1.04
TCGTGGGCGG	0.985
TAGGGAGTGG	1.01
CTATTGAAAG	1.01
TCAAGGTTTT	1.02
ACACGGAATC	1.65
ATAAGCCGGT	1.01
CCGAAATCCA	1.36
CGTCCCAGGG	2.63
CTATTCGTGA	1
CTAATGTG	0.946
TATTCATTCA	0.966
ATATGGTTAT	0.989
GGATGTTTGT	0.992
TTGGTCTCG	1.04
CGTGTGATAC	4.19
GGGAGCGCAG	0.939
AACGTCATAC	3.38
TGTTGTGGGC	0.998
AAAATGGACG	1.11
TCTGTATTGT	0.971
TGAGGATGTC	1.05
GTGAGAAGAT	0.966

Sequence	switch fluorescence ratio
CAAGACTCCT	1.77
TTGGAACGCC	1.03
TCATGGGAA	1
TAACTTGGAA	1
AGCAGTCCGT	1.02
ACCCAAGTTT	1.06
CACAATGAGG	0.981
TGTCAAGCGT	0.997
GTCGGCGGTG	0.979
CAATCTACTC	1.08
TTTGGCCTG	0.991
TAAAGCCTAT	1.02
AGTGCGCGGT	0.991
CCAGCCAGGC	1.09
GCCCATGGCC	0.964
TATACTTGAA	0.976
GGCATGACAG	0.963
ATAGAAGTAA	1.06
AATTGCAGAT	1.01
AACAATAATC	1.06
AATTGCGAGC	1.01
CGACGGGCCC	1.02
GTCGGGGGTC	0.977
ACTAAAGAAT	0.976
ACAGAATTGC	0.979
AAGGCCAATG	0.993

Sequence	switch fluorescence ratio
GTCGGATAAA	1.13
TCTCGATTT	1.05
TCTGGTGGCG	0.969
TTGCCAGCCT	1.03
GCCATTACAT	0.947
TTGTCGATTG	1.01
GTGGACAATT	0.974
AACCGGTTCT	0.98
AGGGTTAAGC	1.01
TAGTTCGTAG	1.04
CTGGGTGACA	0.996
GTGGGATGTC	0.969
CGCGAAGAG	1.04
TAGATCCG	1.08
TGAAAGCGGG	1
TAACTCATTA	1.03
CCAATAACGA	1.03
CGGCCCGGTA	1.02
TGTGGTCGCT	1
TCCGGCGATC	3.73
TTTTTGAGCC	0.96
GCGGGTGGGC	0.913
ACATCTAAGA	0.99
TCGGTGTTCT	0.982
TGCAGTTGG	1.14
ACTAATTACC	1.07

Sequence	switch fluorescence ratio
TCCAAATGGT	0.991
CAAAAGGTCT	1.02
TAGAGGCTAG	0.987
AGCTCTCTCA	1.03
TATGCTCGG	1.03
CACGCAGTCG	1.05
AAGCACGGGG	1.07
CAGCTCGGCG	0.981
TAGTGTCCTA	0.939
CATGTTCAAC	1.03
CGTATAGCAT	0.982
GTATGATATA	0.995
GCATCACCC	1.13
GACTGTGCAC	1.05
GGTTGCTTTA	1.01
TGCTGCAATT	1.13
CGGGTATCCT	1.01
GTGACTTGTT	1.01
TCCCAGGGGG	1.47
TCGGTAGGTT	1.01
TGCGGCCTAG	1.02
CGCCCAGTTC	1.37
CTTTAGTGTT	1.01
GCTAGCACTC	1
GCGAGCCTAG	0.987
GGCGAGTCCT	0.985

Sequence	switch fluorescence ratio
TGTTCTTTTC	0.983
GCCACTTTAT	1.03
GTTTATGGCA	0.974
TGGGGAACCG	1.03
GAATTGTAAC	0.951
GGAAGTCGCG	1.01
AGTCAGGGAG	1.01
AACTGACTG	1.1
ATTGAAGGAA	0.94
CAATGGACGC	1.04
GGGTTAAGAA	1.01
GAGTACCCCG	1
CGAGGGTGGG	1.01
GGCCCAGTTC	0.999
TCGTGGGGCT	0.966
GTTGAGGTAC	0.913
AGATGTGATT	1.01
AGGTCAGTAT	0.991
ATGCGTAAAT	0.961
